Measurements reported in patent US20260200997A1 (REPLIGEN, published 2026).

Assays:
[1] = target: T1, Haptoglobin protein (UniProt P00738 19-160; P00738 162-406, limits assumed); experiment: BLI; ligand held 8 h in 0.25 M NaOH, neutralised, against untreated ligand
T1 construct: The background describes it as two alpha/beta dimers; also called Hp
T1 sequence (looked up) 1: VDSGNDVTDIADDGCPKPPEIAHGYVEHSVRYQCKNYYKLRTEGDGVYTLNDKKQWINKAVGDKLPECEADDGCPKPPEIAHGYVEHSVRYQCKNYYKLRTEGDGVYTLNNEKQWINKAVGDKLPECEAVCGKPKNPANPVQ
T1 sequence (looked up) 2: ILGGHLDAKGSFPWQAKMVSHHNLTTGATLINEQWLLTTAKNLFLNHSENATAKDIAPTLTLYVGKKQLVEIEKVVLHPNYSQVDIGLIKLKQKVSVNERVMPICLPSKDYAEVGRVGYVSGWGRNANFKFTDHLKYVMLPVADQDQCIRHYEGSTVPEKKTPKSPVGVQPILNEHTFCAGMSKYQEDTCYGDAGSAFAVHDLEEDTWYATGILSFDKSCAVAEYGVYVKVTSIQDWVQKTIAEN
Protocol: (§1) Biotinylated ligands were immobilized on sensors and incubated with solutions containing Haptoglobin protein at various concentrations. The binding curves were fitted with a 1:1 binding model using the ForteBio software to determine the affinity and the resulting data is shown in the table below. As expected, all affinity agents bind to Haptoglobin protein with high affinity.
Ligands were incubated in 0.25 M NaOH for 8 hours and then neutralized. The binding of the NaOH treated ligands was measured as described in Example 1 and compared to untreated ligand. The binding retained was calculated according to the following formula: […]

[2] = target: T1, Haptoglobin protein; experiment: BLI (ForteBio), biotinylated ligand on sensor, haptoglobin in solution, 1:1 fit
Protocol: as §1

Row | Binder | Binding retained after 8 hour exposure to 0.25M NaOH (%) [1] [%] | Kd [2] [nM]
1 | SEQ ID NO 10 (designed binder, biotinylated (Avitag system), 3 helical bundle ligand with Avitag; N-terminal Met may be absent; also called 10) MAQGTVDAKFDKELEEARAEIERLPNLTETQRRNFIDALRKDPSTSAGLLAIAKRWNDEQAPKGQAGQGGGSGLNDIFEAQKIEWHECHHHHHH | 82 | < 1
2 | SEQ ID NO 3 (designed binder, biotinylated (Avitag system), 3 helical bundle ligand with Avitag and His tag; N-terminal Met may be absent) MAQGTVDAKFDKELEEARAEIERLPNLTEVQRRNFIDSLRADPSDSAALLAIAKGWNDQQAPKGQAGQGGGSGLNDIFEAQKIEWHECHHHHHH | 80 | < 1
3 | SEQ ID NO 4 (designed binder, biotinylated (Avitag system), 3 helical bundle ligand with Avitag and His tag; N-terminal Met may be absent) MAQGTVDAKFDKELEEARAEIERLPNLTEQQRRNFIHALRQDPSDSAALLAIAKAWNDRQAPKGQAGQGGGSGLNDIFEAQKIEWHECHHHHHH | 92 | 2
4 | SEQ ID NO 8 (designed binder, biotinylated (Avitag system), 3 helical bundle ligand with Avitag and His tag; N-terminal Met may be absent) MAQGTVDAKFDKELEEARAEIERLPNLTEHQRRNFIEALRLDPSQSAGLLAIAKNWNDKQAPKGQAGQGGGSGLNDIFEAQKIEWHECHHHHHH | 90 | < 1
5 | SEQ ID NO 11 (designed binder, biotinylated (Avitag system), 3 helical bundle ligand with Avitag and His tag; N-terminal Met may be absent; also called 11) MAQGTVDAKFDKELEEARAEIERLPNLTESQRRNFIEALRYDPSHSASLLAVAKGWNDRQAPKGQAGQGGGSGLNDIFEAQKIEWHECHHHHHH | 93 | < 1
6 | SEQ ID NO 12 (designed binder, biotinylated (Avitag system), 3 helical bundle ligand with Avitag and His tag; N-terminal Met may be absent; also called 12) MAQGTVDAKFDKELEEARAEIERLPNLTELQRRHFIEALRKDPSSSAGLLAVAKKWNDTQAPKGQAGQGGGSGLNDIFEAQKIEWHECHHHHHH | 84 | < 1
7 | SEQ ID NO 6 (designed binder, biotinylated (Avitag system), 3 helical bundle ligand with Avitag and His tag; N-terminal Met may be absent) MAQGTVDAKFDKELEEARAEIERLPNLTEVQRREFILHLRKDPSTSAGLLAVAKRWNDQQAPKGQAGQGGGSGLNDIFEAQKIEWHECHHHHHH | 76 | 4
8 | SEQ ID NO 7 (designed binder, biotinylated (Avitag system), 3 helical bundle ligand with Avitag and His tag; N-terminal Met may be absent) MAQGTVDAKFDKELEEARAEIERLPNLTEHQRRYFIFALRDDPSKSALLLAAAKRHNDEQAPKGQAGQGGGSGLNDIFEAQKIEWHECHHHHHH | 85 | < 1
9 | SEQ ID NO 9 (designed binder, biotinylated (Avitag system), 3 helical bundle ligand with Avitag and His tag; N-terminal Met may be absent) MAQGTVDAKFDKELEEARAEIERLPNLTEAQRRNFIDALRVDPSDSASLLAIAKSWNDSQAPKGQAGQGGGSGLNDIFEAQKIEWHECHHHHHH | 82 | < 1
10 | SEQ ID NO 13 (designed binder, biotinylated (Avitag system), 3 helical bundle ligand with Avitag and His tag; N-terminal Met may be absent; also called 13) MAQGTVDAKFDKELEEARAEIERLPNLTEDQRRQFIWTLRHDPSESATLLAIAKGWNDKQAPKGQAGQGGGSGLNDIFEAQKIEWHECHHHHHH | 84 | < 1
11 | SEQ ID NO 2 (designed binder, biotinylated (Avitag system), 3 helical bundle ligand with Avitag and His tag; N-terminal Met may be absent) MAQGTVDAKFDKELEEARAEIERLPNLTETQRREFIDLLRLDPSQSASLLAVAKGWNDKQAPKGQAGQGGGSGLNDIFEAQKIEWHECHHHHHH | 74 | < 1
12 | SEQ ID NO 14 (designed binder, biotinylated (Avitag system), 3 helical bundle ligand with Avitag and His tag; N-terminal Met may be absent; also called 14) MAQGTVDAKFDKELEEARAEIERLPNLTEEQRRNFIDHLRKDPSHSAGLLAIAKNWNDAQAPKGQAGQGGGSGLNDIFEAQKIEWHECHHHHHH | 79 | < 1
13 | SEQ ID NO 5 (designed binder, biotinylated (Avitag system), 3 helical bundle ligand with Avitag and His tag; N-terminal Met may be absent) MAQGTVDAKFDKELEEARAEIERLPNLTEEQRRNFIQALRKDPSDSASLLAIAKNWNDKQAPKGQAGQGGGSGLNDIFEAQKIEWHECHHHHHH | 66 | < 1
14 | SEQ ID NO 38 (designed binder, biotinylated (Avitag system), 3 helical bundle ligand with Avitag and His tag; N-terminal Met may be absent; also called 38) MAQGTVDAKFDKELEEARAEIERLPNLTEEQRRNFIEALRTDPSISAGLLAVAKGWNDKQAPKAAACGLNDIFEAQKIEWHEHHHHHH | 97 | < 1
15 | SEQ ID NO 21 (designed binder, biotinylated (Avitag system), 3 helical bundle ligand with Avitag and His tag; N-terminal Met may be absent; also called 21) MAQGTVDAKFDKELEEARAEIERLPNLTEVQRRAFISSLRQDPSDSAALLAIAKNWNDKQAPKAAACGLNDIFEAQKIEWHEHHHHHH | 89 | 6
16 | SEQ ID NO 26 (designed binder, biotinylated (Avitag system), 3 helical bundle ligand with Avitag and His tag; N-terminal Met may be absent; also called 26) MAQGTVDAKFDKELEEARAEIERLPNLTEVQRREFIEYLRLDPSSSASLLATAKGWNDKQAPKAAACGLNDIFEAQKIEWHEHHHHHH | 84 | < 1
17 | SEQ ID NO 30 (designed binder, biotinylated (Avitag system), 3 helical bundle ligand with Avitag and His tag; N-terminal Met may be absent; also called 30) MAQGTVDAKFDKELEEARAEIERLPNLTEEQRREFIIALRTDPSQSAGLLAVAKGFNDKQAPKAAACGLNDIFEAQKIEWHEHHHHHH | 98 | < 1
18 | SEQ ID NO 16 (designed binder, biotinylated (Avitag system), 3 helical bundle ligand with Avitag and His tag; N-terminal Met may be absent; also called 16) MAQGTVDAKFDKELEEARAEIERLPNLTEVQRREFIGLLRTDPSLSAGLLAVAKEWNDRQAPKAAACGLNDIFEAQKIEWHEHHHHHH | 97 | 1
19 | SEQ ID NO 20 (designed binder, biotinylated (Avitag system), 3 helical bundle ligand with Avitag and His tag; N-terminal Met may be absent; also called 20) MAQGTVDAKFDKELEEARAEIERLPNLTEIQRREFINLLRDDPSQSAGLLAVAKAWNDKQAPKAAACGLNDIFEAQKIEWHEHHHHHH | 100 | < 1
20 | SEQ ID NO 24 (designed binder, biotinylated (Avitag system), 3 helical bundle ligand with Avitag and His tag; N-terminal Met may be absent; also called 24) MAQGTVDAKFDKELEEARAEIERLPNLTEVQRREFIALLRIDPSDSAGLLAIAKHWNDSQAPKAAACGLNDIFEAQKIEWHEHHHHHH | 93 | < 1
21 | SEQ ID NO 19 (designed binder, biotinylated (Avitag system), 3 helical bundle ligand with Avitag and His tag; N-terminal Met may be absent; also called 19) MAQGTVDAKFDKELEEARAEIERLPNLTESQRRNFIIALRTDPSESAALLAIAKDWNDRQAPKAAACGLNDIFEAQKIEWHEHHHHHH | 95 | < 1
22 | SEQ ID NO 25 (designed binder, biotinylated (Avitag system), 3 helical bundle ligand with Avitag and His tag; N-terminal Met may be absent; also called 25) MAQGTVDAKFDKELEEARAEIERLPNLTEEQRRNFIDHLRLDPSQSATLLALAKGWNDRQAPKAAACGLNDIFEAQKIEWHEHHHHHH | 96 | 3
23 | SEQ ID NO 22 (designed binder, biotinylated (Avitag system), 3 helical bundle ligand with Avitag and His tag; N-terminal Met may be absent; also called 22) MAQGTVDAKFDKELEEARAEIERLPNLTEIQRRGFIQTLRADPSESATLLAIAKGWNDKQAPKAAACGLNDIFEAQKIEWHEHHHHHH | 90 | < 1
24 | SEQ ID NO 18 (designed binder, biotinylated (Avitag system), 3 helical bundle ligand with Avitag and His tag; N-terminal Met may be absent; also called 18) MAQGTVDAKFDKELEEARAEIERLPNLTELQRREFISLLRLDPSQSASLLAVAKGWNDQQAPKAAACGLNDIFEAQKIEWHEHHHHHH | 87 | < 1
25 | SEQ ID NO 28 (designed binder, biotinylated (Avitag system), 3 helical bundle ligand with Avitag and His tag; N-terminal Met may be absent; also called 28) MAQGTVDAKFDKELEEARAEIERLPNLTEDQRRNFIEALRSDPSISAGLLAAAKGHNDKQAPKAAACGLNDIFEAQKIEWHEHHHHHH | 95 | < 1
26 | SEQ ID NO 23 (designed binder, biotinylated (Avitag system), 3 helical bundle ligand with Avitag and His tag; N-terminal Met may be absent; also called 23) MAQGTVDAKFDKELEEARAEIERLPNLTEEQRRNFIQVLRTDPSDSAWLLAVAKGWNDRQAPKAAACGLNDIFEAQKIEWHEHHHHHH | 100 | < 1
27 | SEQ ID NO 29 (designed binder, biotinylated (Avitag system), 3 helical bundle ligand with Avitag and His tag; N-terminal Met may be absent; also called 29) MAQGTVDAKFDKELEEARAEIERLPNLTEHQRRYFIYSLRFDPSQSAVLLAAAKRHNDEQAPKAAACGLNDIFEAQKIEWHEHHHHHH | 90 | 6
28 | SEQ ID NO 27 (designed binder, biotinylated (Avitag system), 3 helical bundle ligand with Avitag and His tag; N-terminal Met may be absent; also called 27) MAQGTVDAKFDKELEEARAEIERLPNLTEDQRREFISYLRLDPSESAALLAIAKTWNDRQAPKAAACGLNDIFEAQKIEWHEHHHHHH | 90 | < 1
29 | SEQ ID NO 15 (designed binder, biotinylated (Avitag system), 3 helical bundle ligand with Avitag and His tag; N-terminal Met may be absent; also called 15) MAQGTVDAKFDKELEEARAEIERLPNLTEVQRRSFIDYLRLDPSQSASLLAIAKTWNDRQAPKAAACGLNDIFEAQKIEWHEHHHHHH | 95 | < 1
30 | SEQ ID NO 17 (designed binder, biotinylated (Avitag system), 3 helical bundle ligand with Avitag and His tag; N-terminal Met may be absent; also called 17) MAQGTVDAKFDKELEEARAEIERLPNLTEVQRRQFIEYLRLDPSASAELLALAKGWNDRQAPKAAACGLNDIFEAQKIEWHEHHHHHH | 95 | < 1
